Here are results for 30 compounds from PubChem BioAssay (NCATS).

The list shows a part of the results. Further columns of the screen follow, without active or inactive calls. The list favours compounds with an active or inconclusive main result. Words in brackets tell the shape of the fitted curve; partial curves, single points and poor fits give uncertain potencies.

In general, AC50 refers to the midpoint of the concentration-response curve, whichever way the signal moves.
Tags tell the direction and shape of the fitted curve.

The first assay is described as follows: qHTS Assay for Lipid Storage Modulators (AID 1519). The following applies: Drosophila S3 cells, BODIPY lipid droplet/cell ratio, laser cytometry; measured here: cell number channel AC50; cells loaded with oleic acid. Put shortly:
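Cells seeded at 5,000 per well were treated with compounds over a concentration series and loaded with oleic acid (400 uM, as added). Lipid droplet fluorescence (488 nm excitation, 500-530 nm channel) was read by laser-scanning cytometry and normalized to 20 uM Triacsin C.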
(In general: In qHTS, concentration-response curves come from the screen itself.)
As for `O=C(c1csnn1)N1CCC2(CCCN(c3ccc(-c4ccccc4)cc3)C2)CC1`, the AC50 was 1.78 µM [rising, full curve, poor fit].
As for `COc1cc2c(C(=O)c3ccccc3)c3c4c(cc(OC)c(OC)c4c2cc1OC)CCN3C`, the AC50 is 1 µM [rising, full curve].
Turning to `Cn1c(=O)c(-c2ccc(F)c(F)c2)nc2cncnc21`, the half-maximal activity concentration (AC50) is 2.51 µM [rising, full curve].
Take `CN(Cc1ccco1)c1ncnc2ccc(-c3cccc(NS(C)(=O)=O)c3)cc12`: the AC50 is 1 µM [rising, full curve].
`O=c1c(-c2cc(F)cc(F)c2)nc2cnc(N3CCNCC3)nc2n1Cc1ccc(F)cc1`: the AC50 was 39.8 µM [falling, single point].
Consider `N[C@H](C(=O)O)[C@H](OCc1ccccc1)C(=O)O`, for which the AC50 was 35.5 µM [rising, partial curve, poor fit].
As to `C=CCn1c(=O)c2c(nc(-c3ccc(S(=O)(=O)O)cc3)n2C)n(C)c1=O`, the concentration at half-maximal activity (AC50) is 0.00251 µM [falling, full curve, poor fit].
Regarding `CSc1nc(NC2CCCC2)c([N+](=O)[O-])c(NC2CCCC2)n1`, the AC50 was 11.2 µM [rising, partial curve].
On to `CCNc1ncc2nc(-c3cccs3)c(=O)n(C[C@H]3CCCO3)c2n1`, for which the AC50 was 3.55 µM [rising, single point].

Still in this assay, the particulars now being: Drosophila S3 cells, BODIPY lipid droplet/cell ratio, laser cytometry; measured here: lipid (BODIPY) channel AC50; cells loaded with oleic acid.
Turning to `COCCn1c(=O)c(-c2cccc(Cl)c2)nc2cncnc21`, the AC50 is 3.55 µM [rising, full curve].
As to `CCNc1ncc2nc(-c3cc(F)cc(F)c3)c(=O)n(CCC#N)c2n1`, the half-maximal activity concentration (AC50) is 0.178 µM [rising, full curve, poor fit].
Regarding `Nc1ncnc2c1nc(Sc1ccc(Cl)cc1)n2[C@H]1O[C@@H]2COP(=O)(O)O[C@H]2[C@@H]1O`, the AC50 is 12.6 µM [falling, partial curve, poor fit].
Turning to `O=C(c1ccco1)N1CCC2(CC1)CN(c1ncccn1)C2`, the half-maximal activity concentration (AC50) is 4.47 µM [rising, partial curve].
In the case of `c1ccc2sc(N3CCN(Cc4ccc5c(c4)OCO5)CC3)nc2c1`, the AC50 was 14.1 µM [rising, full curve, poor fit].
For `O=c1c(CCc2ccccc2)nc2cnc(N3CCNCC3)nc2n1Cc1cccs1`, the AC50 is 5.01 µM [rising, partial curve].
For the compound `COc1ccc(CNc2ccnc(-c3ccccc3Cl)n2)c(OC)c1`, the AC50 was 2.24 µM [rising, partial curve, poor fit].
On the same count and under the same terms, with `O=c1c(-c2ccc(F)cc2)nc2cncnc2n1Cc1ccc(F)cc1` the figure was 0.562 µM [rising, full curve, poor fit]; with `CC(=O)Nc1ccc(-c2nc3ccc(Cl)cc3[nH]2)cc1`, 0.708 µM [rising, full curve]; with `CN(C)C(=O)c1ccc(-c2ccc3ncnc(NC4CC4)c3c2)cc1`, 0.1 µM [rising, full curve].
Same read-out and setting: then `Cn1c(=O)c(-c2ccc(F)cc2)nc2cncnc21`, with 0.0398 µM [rising, full curve, poor fit]; and `CN(C)c1ncc2nc(-c3ccc(F)cc3)c(=O)n(CCC#N)c2n1`, with 0.0224 µM [rising, full curve, poor fit]; and `N#Cc1ccc(CN2CC3(CCN(C(=O)c4csnn4)CC3)C2)cc1`, with 20 µM [rising, partial curve].
Turning to `CC(C)=CCc1c2c(c3occ(-c4ccc(O)cc4)c(=O)c3c1O)C=CC(C)(C)O2`, the AC50 was 28.2 µM [falling, partial curve].
On the same count and under the same terms, with `O=C(O)C1CCCNC1` (stereo not given) the figure was 39.8 µM [rising, single point]; with `CCOC(=O)C1=C(O)C(=O)N(Cc2ccccc2)C1`, 15.8 µM [rising, partial curve, poor fit].
Consider `c1cncc(-c2nc(N3CCNCC3)c3ccccc3n2)c1`, for which the AC50 is 1.58 µM [rising, full curve, poor fit].
As for `O=C(O)c1cc(=O)c2c(Cl)cc(Cl)cc2[nH]1`, the concentration at half-maximal activity (AC50) is 15.8 µM [rising, single point].
The same measure, in the same setting: with `COc1ccccc1CNc1nc(-c2ccc(N(C)C)cc2)nc2ccccc12` the figure was 39.8 µM [falling, single point]; with `CCNc1ncc2nc(-c3cccc(C#N)c3)c(=O)n(CCC#N)c2n1`, 25.1 µM [falling, single point]; with `Cc1cccc(/C=C\c2ccccc2)n1`, 14.1 µM [rising, partial curve].
